This note sets out measurements from the supplement of paper PMC4604168 (melanoma cell lines).

Some test systems named below: WM115; WM1716; WM1745; WM3526; WM3619; WM451Lu.
Assay in all cases: cell count relative to DMSO control; melanoma cells; higher = more viable cells
Holding throughout (settings): library dose: low library concentration; 72 h

The structures appear in SMILES notation. The list shows a part of the results. Single values are uncertain, as repeats are few or missing.
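Also: cell number obtained by counting DAPI-stained nuclei in high-throughput microscope images with image analysis software, screen run in 1,536-well plates.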

Regarding `Cc1ccc(Nc2nccc(N(C)c3ccc4c(C)n(C)nc4c3)n2)cc1S(N)(=O)=O` [Pazopanib] + O=C(O)C(=O)Nc1sc2c(c1C(=O)O)CCNC2 [TCS401] (first compound 0.4 µM, partner dose 1.66667 µM), the cell count in the experiment with WM115 was 104%; in the experiment on WM1716, 93%; with WM1745, 82.3%; in the experiment on WM3526, 101%; in the experiment on WM3619 it was 93.3%; in the experiment with WM451Lu it was 96.1%.

With `CC1(C)CCC(c2ccc(Cl)cc2)=C(CN2CCN(c3ccc(C(=O)NS(=O)(=O)c4ccc(N[C@H](CCN5CCOCC5)CSc5ccccc5)c(S(=O)(=O)C(F)(F)F)c4)cc3)CC2)C1` + CNC(=O)c1cc(Oc2ccc(NC(=O)Nc3ccc(Cl)c(C(F)(F)F)c3)cc2)ccn1 [sorafenib] (first compound 0.4 µM, partner dose 0.4 µM), the cell count with WM115 was found to be 86.5%; in the experiment with WM1716, 60.8%; in the experiment on WM1745, 14.3%; in the experiment with WM3526, 89.8%; in the experiment with WM3619 it was 92.8%; in the experiment on WM451Lu it was 57.5%.

`O=C(/C=C/c1cccnc1)NCCCCC1CCN(C(=O)c2ccccc2)CC1` + COCC[n+]1c2c(n(Cc3cnccn3)c1C)C(=O)c1ccccc1C2=O [YM155] (first compound 0.01 µM, partner dose 0.0004 µM): the cell count worked out at 98.3% in the experiment with WM115; 98.6% in the experiment on WM1716; 92.9% with WM1745; 94% with WM3526; 81.7% in the experiment with WM3619; 85.8% in the experiment with WM451Lu.

`O=C(/C=C/c1cccnc1)NCCCCC1CCN(C(=O)c2ccccc2)CC1` + Cn1nnc2c(C(N)=O)ncn2c1=O [temozolomide] (first compound 0.01 µM, partner dose 2 µM): the cell count in the experiment with WM115 was 103%; in the experiment with WM1716 it was 94.9%; in the experiment on WM1745, 103%; in the experiment on WM3526, 110%; in the experiment on WM3619, 88.5%; in the experiment with WM451Lu, 109%.

For `Cc1ccc(Nc2nccc(N(C)c3ccc4c(C)n(C)nc4c3)n2)cc1S(N)(=O)=O` [Pazopanib] + COc1ccc(COc2ccc(Cc3cnc(N)nc3N)cc2OC)cc1 [GW2580] (first compound 0.4 µM, partner dose 1 µM), the cell count was 97.3% with WM115; 82.9% in the experiment with WM1716; 93.5% with WM1745; 37.8% in the experiment on WM3526; 95.3% with WM3619; 89.6% in the experiment with WM451Lu.

On to `Cc1ccc(Nc2nccc(N(C)c3ccc4c(C)n(C)nc4c3)n2)cc1S(N)(=O)=O` [Pazopanib] + Cc1cc(N2CCOCC2)cc2[nH]c(-c3c(NC[C@@H](O)c4cccc(Cl)c4)cc[nH]c3=O)nc12 [BMS536924] (first compound 0.4 µM, partner dose 0.2 µM), for which the cell count in the experiment on WM115 is 103%; in the experiment with WM1716, 99%; in the experiment on WM1745, 78.8%; in the experiment with WM3526, 80.8%; in the experiment on WM3619, 92.7%; with WM451Lu, 114%.

Consider `CC1(C)CCC(c2ccc(Cl)cc2)=C(CN2CCN(c3ccc(C(=O)NS(=O)(=O)c4ccc(N[C@H](CCN5CCOCC5)CSc5ccccc5)c(S(=O)(=O)C(F)(F)F)c4)cc3)CC2)C1` + COc1ccc(Cl)c(Nc2nc3ccccc3nc2NS(=O)(=O)c2cccc(NC(=O)C(C)(C)N)c2)c1 [XL147] (first compound 0.4 µM, partner dose 0.8 µM), for which the cell count was determined as 89.9% in the experiment with WM115; 66.6% in the experiment with WM1716; 25.3% in the experiment with WM1745; 88.7% with WM3526; 67.8% with WM3619; 92% in the experiment on WM451Lu.

For the compound `CC1(C)CCC(c2ccc(Cl)cc2)=C(CN2CCN(c3ccc(C(=O)NS(=O)(=O)c4ccc(N[C@H](CCN5CCOCC5)CSc5ccccc5)c(S(=O)(=O)C(F)(F)F)c4)cc3)CC2)C1` + C[C@@H](N)c1ccc(C(=O)Nc2ccnc3[nH]ccc23)cc1 [RKI983] (first compound 0.4 µM, partner dose 0.4 µM), the cell count in the experiment on WM115 came to 89.1%; with WM1716 it was 33%; with WM1745 it was 10.9%; in the experiment on WM3526, 94.5%; in the experiment with WM3619 it was 85%; in the experiment on WM451Lu, 69.8%.

For the compound `Cc1ccc(Nc2nccc(N(C)c3ccc4c(C)n(C)nc4c3)n2)cc1S(N)(=O)=O` [Pazopanib] + O=S(=O)(c1ccccc1)N(CC(F)(F)F)c1ccc(C(O)(C(F)(F)F)C(F)(F)F)cc1 [T0901317] (first compound 0.4 µM, partner dose 1.4 µM), the cell count in the experiment with WM115 came to 84.6%; with WM1716, 70.3%; in the experiment on WM1745, 84%; in the experiment with WM3526 it was 67%; in the experiment on WM3619 it was 86.7%; with WM451Lu, 105%.

For the compound `Cc1ccc(Nc2nccc(N(C)c3ccc4c(C)n(C)nc4c3)n2)cc1S(N)(=O)=O` [Pazopanib] + Cn1sc(=O)n(Cc2ccccc2)c1=O [TDZD-8] (first compound 0.4 µM, partner dose 0.4 µM), the cell count with WM115 was 96%; in the experiment with WM1716, 92.6%; in the experiment on WM1745 it was 89.1%; with WM3526, 98.8%; in the experiment on WM3619, 108%; with WM451Lu, 90.5%.

In the case of `Cc1ccc(Nc2nccc(N(C)c3ccc4c(C)n(C)nc4c3)n2)cc1S(N)(=O)=O` [Pazopanib] + CC(C)CCN1c2nc(Nc3cc(F)c(O)c(F)c3)ncc2N(C)C(=O)C1C [BID1870] (first compound 0.4 µM, partner dose 0.2 µM), the cell count in the experiment with WM115 came to 91.9%; in the experiment with WM1716, 88.1%; in the experiment with WM1745 it was 92.4%; in the experiment on WM3526 it was 95.6%; in the experiment with WM3619 it was 85.9%; in the experiment on WM451Lu, 93.3%.

On to `CC1(C)CCC(c2ccc(Cl)cc2)=C(CN2CCN(c3ccc(C(=O)NS(=O)(=O)c4ccc(N[C@H](CCN5CCOCC5)CSc5ccccc5)c(S(=O)(=O)C(F)(F)F)c4)cc3)CC2)C1` + Cn1cc(/C=C2\C(=O)Nc3cccnc32)c2ccccc21 [GW441756] (first compound 0.4 µM, partner dose 0.4 µM), for which the cell count in the experiment with WM115 is 89.6%; with WM1716, 105%; in the experiment on WM1745 it was 17.7%; with WM3526, 87.9%; with WM3619, 112%; with WM451Lu, 104%.

On to `CC1(C)CCC(c2ccc(Cl)cc2)=C(CN2CCN(c3ccc(C(=O)NS(=O)(=O)c4ccc(N[C@H](CCN5CCOCC5)CSc5ccccc5)c(S(=O)(=O)C(F)(F)F)c4)cc3)CC2)C1` + Nc1ccn([C@@H]2O[C@H](CO)[C@@H](O)C2(F)F)c(=O)n1 [gemcitabine] (first compound 0.4 µM, partner dose 0.0004 µM), for which the cell count with WM115 stood at 80.5%; with WM1716, 63.6%; with WM1745, 15.4%; with WM3526 it was 97.6%; with WM3619 it was 61.7%; in the experiment with WM451Lu it was 90.8%.

On to `CC1(C)CCC(c2ccc(Cl)cc2)=C(CN2CCN(c3ccc(C(=O)NS(=O)(=O)c4ccc(N[C@H](CCN5CCOCC5)CSc5ccccc5)c(S(=O)(=O)C(F)(F)F)c4)cc3)CC2)C1` + CO[C@@H]1[C@H](N(C)C(=O)c2ccccc2)C[C@H]2O[C@]1(C)n1c3ccccc3c3c4c(c5c6ccccc6n2c5c31)C(=O)NC4 [Midostaurin] (first compound 0.4 µM, partner dose 0.08 µM), for which the cell count in the experiment on WM115 was determined as 78.2%; in the experiment on WM1716, 47.3%; with WM1745, 12.6%; in the experiment with WM3526, 84.2%; in the experiment on WM3619 it was 87.7%; in the experiment on WM451Lu, 68.5%.

As for `Cc1ccc(Nc2nccc(N(C)c3ccc4c(C)n(C)nc4c3)n2)cc1S(N)(=O)=O` [Pazopanib] + Nc1nc(F)nc2c1ncn2[C@@H]1O[C@H](CO)[C@@H](O)[C@@H]1O [fludarabine] (first compound 0.4 µM, partner dose 0.2 µM), the cell count was found to be 86.9% in the experiment with WM115; 68.5% with WM1716; 77.9% in the experiment with WM1745; 38.9% in the experiment with WM3526; 73.1% with WM3619; 67.5% with WM451Lu.

In the case of `Cc1ccc(Nc2nccc(N(C)c3ccc4c(C)n(C)nc4c3)n2)cc1S(N)(=O)=O` [Pazopanib] + Cc1cc([N+](=O)[O-])ccc1NS(=O)(=O)c1cc(Cl)ccc1Cl [FH535] (first compound 0.4 µM, partner dose 1 µM), the cell count stood at 93.3% with WM115; 73.1% in the experiment on WM1716; 97.1% in the experiment on WM1745; 87.7% with WM3526; 99.7% with WM3619; 81.4% in the experiment on WM451Lu.

`O=C(/C=C/c1cccnc1)NCCCCC1CCN(C(=O)c2ccccc2)CC1` + COc1cc(N2CCC(N3CCN(C)CC3)CC2)ccc1Nc1ncc(Cl)c(Nc2ccccc2S(=O)(=O)C(C)C)n1 [NVP-TAE684] (first compound 0.01 µM, partner dose 0.08 µM): the cell count in the experiment with WM115 was determined as 85.6%; in the experiment with WM1716, 102%; in the experiment with WM1745, 75.1%; in the experiment with WM3526 it was 103%; with WM3619, 99.2%; in the experiment with WM451Lu, 112%.

`O=C(/C=C/c1cccnc1)NCCCCC1CCN(C(=O)c2ccccc2)CC1` + Nc1nc(F)nc2c1ncn2[C@@H]1O[C@H](CO)[C@@H](O)[C@@H]1O [fludarabine] (first compound 0.01 µM, partner dose 0.2 µM): the cell count in the experiment with WM115 was 92%; in the experiment on WM1716, 83.6%; with WM1745, 91.1%; with WM3526 it was 38.7%; in the experiment with WM3619 it was 91.2%; with WM451Lu, 94.5%.

Consider `Cc1ccc(Nc2nccc(N(C)c3ccc4c(C)n(C)nc4c3)n2)cc1S(N)(=O)=O` [Pazopanib] + O=c1cc(-c2cccc3c2Sc2ccccc2S3)oc(N2CCOCC2)c1 [KU55933] (first compound 0.4 µM, partner dose 1 µM), for which the cell count with WM115 was determined as 93.7%; in the experiment on WM1716, 99.2%; in the experiment with WM1745, 101%; in the experiment on WM3526 it was 103%; in the experiment on WM3619, 103%; in the experiment on WM451Lu, 84.5%.

Take `O=C(/C=C/c1cccnc1)NCCCCC1CCN(C(=O)c2ccccc2)CC1` + O=C(O)C(=O)Nc1sc2c(c1C(=O)O)CCNC2 [TCS401] (first compound 0.01 µM, partner dose 1.66667 µM): the cell count came out at 86.3% in the experiment on WM115; 87.4% with WM1716; 92.5% with WM1745; 97.3% in the experiment with WM3526; 86.4% with WM3619; 88.2% in the experiment on WM451Lu.

In the case of `Cc1ccc(Nc2nccc(N(C)c3ccc4c(C)n(C)nc4c3)n2)cc1S(N)(=O)=O` [Pazopanib] + CN(NC(=O)CC(=O)NN(C)C(=S)c1ccccc1)C(=S)c1ccccc1 [STA4783] (first compound 0.4 µM, partner dose 0.006 µM), the cell count in the experiment with WM115 turned out to be 88.1%; in the experiment on WM1716 it was 45%; in the experiment with WM1745, 40.5%; in the experiment with WM3526, 96.7%; with WM3619 it was 65.8%; with WM451Lu it was 88.9%.

For `O=C(/C=C/c1cccnc1)NCCCCC1CCN(C(=O)c2ccccc2)CC1` + Oc1cc(-c2nc(-c3ccccc3)[nH]c2-c2ccncc2)ccc1Cl [L779450] (first compound 0.01 µM, partner dose 0.2 µM), the cell count turned out to be 82.8% with WM115; 89.8% with WM1716; 72.1% in the experiment with WM1745; 86.9% in the experiment on WM3526; 86.5% in the experiment with WM3619; 104% in the experiment on WM451Lu.

Take `Cc1ccc(Nc2nccc(N(C)c3ccc4c(C)n(C)nc4c3)n2)cc1S(N)(=O)=O` [Pazopanib] + CS(=O)(=O)CCNCc1ccc(-c2ccc3ncnc(Nc4ccc(OCc5cccc(F)c5)c(Cl)c4)c3c2)o1 [lapatinib] (first compound 0.4 µM, partner dose 0.8 µM): the cell count in the experiment with WM115 came out at 104%; with WM1716, 93.8%; in the experiment on WM1745, 93.7%; in the experiment with WM3526 it was 96.1%; in the experiment with WM3619 it was 101%; in the experiment on WM451Lu, 90.6%.

Turning to `CC1(C)CCC(c2ccc(Cl)cc2)=C(CN2CCN(c3ccc(C(=O)NS(=O)(=O)c4ccc(N[C@H](CCN5CCOCC5)CSc5ccccc5)c(S(=O)(=O)C(F)(F)F)c4)cc3)CC2)C1` + Cn1nnc2c(C(N)=O)ncn2c1=O [temozolomide] (first compound 0.4 µM, partner dose 2 µM), the cell count in the experiment with WM115 was 81.1%; in the experiment with WM1716, 63.1%; in the experiment with WM1745, 9.47%; in the experiment on WM3526 it was 93.3%; in the experiment on WM3619, 74.1%; in the experiment with WM451Lu it was 80.6%.
